B1: GPR68, Q15743 (parent)
chain: MGNITADNSSMSCTIDHTIHQTLAPVVYVTVLVVGFPANCLSLYFGYLQIKARNELGVYLCNLTVADLFYICSLPFWLQYVLQHDNWSHGDLSCQVCGILLYENIYISVGFLCCISVDRYLAVAHPFRFHQFRTLKAAVGVSVVIWAKELLTSIYFLMHEEVIEDENQHRVCFEHYPIQAWQRAINYYRFLVGFLFPICLLLASYQGILRAVRRSHGTQKSRKDQIQRLVLSTVVIFLACFLPYHVLLLVRSVWEASCDFAKGVFNAYHFSLLLTSFNCVADPVLYCFVSETTHRDLARLRGACLAFLTCSRTGRAREAYPLGAPEASGKSGAQGEEPELLTKLHPAFQTPNSPGSGGFPTGRLA

The variants in data set [1] derive from B1. The data set is described as follows: cAMP reporter score (Enrich2 score, wild type = 0); higher = more signal; HEK293T, FACS bins.
In data set [2] the parent is B1. The data set is described as follows: surface expression score (Enrich2 score, wild type = 0); higher = more signal; HEK293T, FACS bins.

Scores whose standard error is large were omitted. Two further conditions of the source, in which the scores hardly spread, are not listed. Read del as a deletion of the residues named and ins as an insertion between two positions. For some of these results: The data file names ogerin without a concentration.

Turning to R183S, the cAMP reporter score is -0.755 in data set [1] (pH 5.5); 1.45 in data set [1] (pH 6); -0.578 in data set [1] (pH 6, modulator: ogerin); 0.606 in data set [1] (pH 6.5, modulator: ogerin). Further, the surface expression score in data set [2] was -0.545.

As to R183W, the cAMP reporter score is -0.352 in data set [1] (pH 5.5); -0.795 in data set [1] (pH 6, modulator: ogerin); -1.12 in data set [1] (pH 6.5, modulator: ogerin). Moreover, the surface expression score in data set [2] is -3.05.

In the case of R183V, the cAMP reporter score is -0.626 in data set [1] (pH 5.5) and -0.06 in data set [1] (pH 6, modulator: ogerin). The surface expression score in data set [2] is -0.594.

As for R183L, the cAMP reporter score in data set [1] (pH 5.5) was -0.38; in data set [1] (pH 6) it was -0.215; in data set [1] (pH 6, modulator: ogerin) it was -0.831; in data set [1] (pH 6.5, modulator: ogerin) it was 0.138. In addition, the surface expression score in data set [2] came out at 0.082.

Regarding R183E, the cAMP reporter score in data set [1] (pH 5.5) is -1.17; in data set [1] (pH 6, modulator: ogerin) it was -0.317; in data set [1] (pH 6.5, modulator: ogerin), -0.152. In data set [2], the surface expression score is -2.15.

Consider R183A, for which the cAMP reporter score in data set [1] (pH 5.5) is 0.241; in data set [1] (pH 6, modulator: ogerin), 0.063; in data set [1] (pH 6.5, modulator: ogerin), 1.72. For the same variant, the surface expression score in data set [2] is -0.732.

Take R183K: the cAMP reporter score in data set [1] (pH 5.5) was found to be 1.45; in data set [1] (pH 6, modulator: ogerin), 0.935; in data set [1] (pH 6.5, modulator: ogerin) it was 2.42. Moreover, in data set [2], the surface expression score came out at 0.926.

Turning to R183T, the cAMP reporter score in data set [1] (pH 5.5) was -0.942; in data set [1] (pH 6), -0.961; in data set [1] (pH 6, modulator: ogerin), -1.27; in data set [1] (pH 6.5, modulator: ogerin), -1.17. Also, the surface expression score in data set [2] is -1.38.

For R183I, the cAMP reporter score was 1 in data set [1] (pH 5.5); 1.19 in data set [1] (pH 6); -0.202 in data set [1] (pH 6, modulator: ogerin). Also, the surface expression score in data set [2] was -1.33.

Regarding R183F, the cAMP reporter score in data set [1] (pH 5.5) was -0.092; in data set [1] (pH 6), 0.159; in data set [1] (pH 6, modulator: ogerin) it was -0.91; in data set [1] (pH 6.5, modulator: ogerin), -0.054. Besides, the surface expression score in data set [2] is -0.586.

As for R183Q, the cAMP reporter score in data set [1] (pH 5.5) is 0.499; in data set [1] (pH 6) it was -1.16; in data set [1] (pH 6, modulator: ogerin), 0.664; in data set [1] (pH 6.5, modulator: ogerin), 0.276. For the same variant, in data set [2], the surface expression score was -0.074.

In the case of R183C, the cAMP reporter score worked out at 0.306 in data set [1] (pH 5.5); 1.08 in data set [1] (pH 6); 1.02 in data set [1] (pH 6, modulator: ogerin); 1.4 in data set [1] (pH 6.5, modulator: ogerin).

Turning to R183N, the cAMP reporter score in data set [1] (pH 5.5) was -0.383; in data set [1] (pH 6) it was 1.19; in data set [1] (pH 6, modulator: ogerin), -0.18. Moreover, the surface expression score in data set [2] is -1.36.

R183P: the cAMP reporter score in data set [1] (pH 5.5) was 0.911; in data set [1] (pH 6), -0.169; in data set [1] (pH 6, modulator: ogerin) it was -1.22; in data set [1] (pH 6.5, modulator: ogerin), -0.235. Besides, in data set [2], the surface expression score was -0.479.

As to R183G, the cAMP reporter score was -0.369 in data set [1] (pH 5.5); -0.084 in data set [1] (pH 6); -0.009 in data set [1] (pH 6, modulator: ogerin); -1.18 in data set [1] (pH 6.5, modulator: ogerin). In data set [2], the surface expression score was -1.34.

R183M: the cAMP reporter score in data set [1] (pH 5.5) was 0.619; in data set [1] (pH 6, modulator: ogerin) it was -0.868; in data set [1] (pH 6.5, modulator: ogerin), -0.41. Also, the surface expression score in data set [2] was -0.981.

Take R183D: the cAMP reporter score was -1.27 in data set [1] (pH 5.5); -0.92 in data set [1] (pH 6); -2.96 in data set [1] (pH 6.5, modulator: ogerin). Moreover, the surface expression score in data set [2] is -1.72.

As for E174_H175insG, the cAMP reporter score in data set [1] (pH 5.5) is -0.899; in data set [1] (pH 6), -1.18; in data set [1] (pH 6, modulator: ogerin) it was -0.607. Also, in data set [2], the surface expression score was -0.29.

Regarding A184_I185del, the cAMP reporter score was -1.27 in data set [1] (pH 5.5); -1.16 in data set [1] (pH 6); -1.43 in data set [1] (pH 6, modulator: ogerin); -1.23 in data set [1] (pH 6.5, modulator: ogerin). Further, the surface expression score in data set [2] is -2.17.

Turning to Q179_A180del, the cAMP reporter score was -1.18 in data set [1] (pH 5.5); -1.55 in data set [1] (pH 6); -1.25 in data set [1] (pH 6, modulator: ogerin); -1.78 in data set [1] (pH 6.5, modulator: ogerin). Besides, in data set [2], the surface expression score is -2.21.

On to E174_H175insGSG, for which the cAMP reporter score was -1.86 in data set [1] (pH 5.5); -1.98 in data set [1] (pH 6); -1.9 in data set [1] (pH 6, modulator: ogerin); -1.98 in data set [1] (pH 6.5, modulator: ogerin). Further, the surface expression score in data set [2] was -0.296.

Take Y176_P177insG: the cAMP reporter score was -0.421 in data set [1] (pH 5.5); -0.544 in data set [1] (pH 6); -0.688 in data set [1] (pH 6, modulator: ogerin); -0.425 in data set [1] (pH 6.5, modulator: ogerin). Moreover, in data set [2], the surface expression score is -0.426.

In the case of Q179_W181del, the cAMP reporter score in data set [1] (pH 5.5) is -1.18; in data set [1] (pH 6) it was -0.911; in data set [1] (pH 6, modulator: ogerin) it was -1.23; in data set [1] (pH 6.5, modulator: ogerin) it was -1.19. Besides, the surface expression score in data set [2] was -0.635.

Regarding Y176_I178del, the cAMP reporter score is -1.41 in data set [1] (pH 5.5); -0.563 in data set [1] (pH 6); -2.4 in data set [1] (pH 6, modulator: ogerin); -1.97 in data set [1] (pH 6.5, modulator: ogerin). In addition, the surface expression score in data set [2] was -2.62.

Y176P: the cAMP reporter score in data set [1] (pH 5.5) is -1.64; in data set [1] (pH 6), -1.41; in data set [1] (pH 6.5, modulator: ogerin) it was -0.795. Also, in data set [2], the surface expression score was -1.59.

For the variant Y176C, the cAMP reporter score is -0.684 in data set [1] (pH 5.5); -0.225 in data set [1] (pH 6); -0.95 in data set [1] (pH 6, modulator: ogerin); -0.718 in data set [1] (pH 6.5, modulator: ogerin). Also, the surface expression score in data set [2] is -0.951.

As for Y176W, the cAMP reporter score in data set [1] (pH 5.5) stood at 0.245; in data set [1] (pH 6, modulator: ogerin) it was 1.25; in data set [1] (pH 6.5, modulator: ogerin), 0.653.

Turning to Y176A, the cAMP reporter score was -0.192 in data set [1] (pH 5.5); -1.1 in data set [1] (pH 6, modulator: ogerin); -1.14 in data set [1] (pH 6.5, modulator: ogerin). For the same variant, the surface expression score in data set [2] came out at 0.068.

Take Y176F: the cAMP reporter score in data set [1] (pH 5.5) was 0.469; in data set [1] (pH 6) it was -0.518; in data set [1] (pH 6, modulator: ogerin), -0.128; in data set [1] (pH 6.5, modulator: ogerin) it was -1.16. Also, in data set [2], the surface expression score came to 1.33.

As for Y176H, the cAMP reporter score in data set [1] (pH 5.5) was -0.182; in data set [1] (pH 6), -0.25; in data set [1] (pH 6, modulator: ogerin), -0.478; in data set [1] (pH 6.5, modulator: ogerin), -0.387. In data set [2], the surface expression score was -0.363.

In the case of Y176G, the cAMP reporter score in data set [1] (pH 5.5) was -0.851; in data set [1] (pH 6), -0.736; in data set [1] (pH 6, modulator: ogerin), -1.43; in data set [1] (pH 6.5, modulator: ogerin), -0.865. Also, in data set [2], the surface expression score is -0.265.

On to Y176M, for which the cAMP reporter score in data set [1] (pH 5.5) is -1.18; in data set [1] (pH 6) it was -1.05; in data set [1] (pH 6, modulator: ogerin), -0.962; in data set [1] (pH 6.5, modulator: ogerin), -1.44. In data set [2], the surface expression score is 0.45.

For Y176I, the cAMP reporter score in data set [1] (pH 5.5) was 1.22; in data set [1] (pH 6), 0.135; in data set [1] (pH 6, modulator: ogerin), 0.523; in data set [1] (pH 6.5, modulator: ogerin), 0.242.

The values above are taken from the GPR68 mutational scans of Howard et al. (2025).
